The chains are these.
B1: PhoQ; a variant is named by its letters at X, in order, P23837 (parent)
chain: MKKLLRLFFPLSLRVRFLLATAAVVLVLSLAYGMVALIGYSVSFDKTTFRLLRGESNLFYTLAKWENNKLHVELPENIDKQSPTMTLIYDENGQLLWAQRDVPWLMKMIQPDWLKSNGFHEIEADVNDTSLLLSGDHSIQQQLQEVREDDDDAEMTHSVAVNVYPATSRMPKLTIVVVDTIPVELKSSYMVWSWFIYVLSANLLLVIPLLWVAAWWSLRPIEALAKEVRELEEHNRELLNPATTRELTSLVRNLNRLLKSERERYDKYRTTLTDLTHSLKTPLXXLQXXLRSLRSEKMSVSDAEPVMLEQISRISQQIGYYLHRASMRGGTLLSRELHPVAPLLDNLTSALNKVYQRKGVNISLDISPEISFVGEQNDFVEVMGNVLDNACKYCLEFVEISARQTDEHLYIVVEDDGPGIPLSKREVIFDRGQRVDTLRPGQGVGLAVAREITEQYEGKIVAGESMLGGARMEVIFGRQHSAPKDE

This is one part of the list.

The variants in this experiment derive from B1. Description: enrichment ratio after two sorts for PhoP signalling (ratio (wild type AVST 3.29)); higher = more functional. The following applies: with PhoP (E. coli).
With FQLT, the enrichment ratio amounted to 0.814.
With ETAI, the enrichment ratio is at most 0.25.
On to PMPA, for which the enrichment ratio is at most 0.25.
The same measure for AGPD: at most 0.25; for RPWR: at most 0.25.
DQNS: the enrichment ratio is at most 0.25.
As for HYVW, the enrichment ratio is at most 0.25.
In the case of PALL, the enrichment ratio is at most 0.25.
In the case of FVPP it was at most 0.25.
Regarding TMGC, the enrichment ratio came out at 11.3.
Turning to MERF, the enrichment ratio was at most 0.25.
In the case of GLKP it was at most 0.25.
In the case of QRQP it was at most 0.25; in that of DMQA, at most 0.25.
The same measure for TRKT: at most 0.25; for AMMD: at most 0.25; for NAKF: at most 0.25.
Turning to RDQV, the enrichment ratio was at most 0.25.
For VPYY, the enrichment ratio was at most 0.25.
For the variant HFWP, the enrichment ratio is at most 0.25.
ADNY: the enrichment ratio was at most 0.25.
On to PKSC, for which the enrichment ratio is at most 0.25.
The same measure for DNFD: at most 0.25; for KMAV: at most 0.25; for SKLN: 6.24.
The same measure for NMAL: at most 0.25; for NSRQ: at most 0.25.
The same measure for HWID: at most 0.25.
For FWTP, the enrichment ratio is at most 0.25.
Take IKFS: the enrichment ratio was at most 0.25.
In the case of EYWP it was at most 0.25; in that of MLKQ, at most 0.25.
Consider NGNH, for which the enrichment ratio was at most 0.25.
The same measure for QFTL: at most 0.25; for FGVP: at most 0.25; for PLHL: at most 0.25.
The same measure for HNLK: at most 0.25; for RPAM: at most 0.25; for GRAR: at most 0.25.
Turning to DRYA, the enrichment ratio is at most 0.25.
For TDNE, the enrichment ratio is at most 0.25.
In the case of GKGP it was at most 0.25.
In the case of PKTW, the enrichment ratio is at most 0.25.
In the case of ECVW it was at most 0.25; in that of KQAH, 0.881.
As for SHFV, the enrichment ratio is at most 0.25.
In the case of ATLN it was 17.9; in that of WAWP, at most 0.25.
In the case of YTTQ, the enrichment ratio is at most 0.25.
Regarding RHPG, the enrichment ratio was at most 0.25.
Regarding QQKS, the enrichment ratio was at most 0.25.
Take HAGW: the enrichment ratio was at most 0.25.
As to RSFQ, the enrichment ratio is at most 0.25.
AKFA: the enrichment ratio is at most 0.25.
In the case of QAIM it was at most 0.25; in that of GDET, at most 0.25; in that of EADM, at most 0.25.
The same measure for WLCL: at most 0.25.
As to RLCR, the enrichment ratio was at most 0.25.
The same measure for NIRR: at most 0.25; for VPRT: at most 0.25; for WYYS: at most 0.25.
In the case of IEWP it was at most 0.25; in that of WYAA, at most 0.25.
For the variant RIPQ, the enrichment ratio was at most 0.25.
As to GPRD, the enrichment ratio was at most 0.25.
The same measure for HQFD: at most 0.25; for EHGA: at most 0.25; for LVKS: at most 0.25.
For the variant YMAH, the enrichment ratio is at most 0.25.
As to DFVN, the enrichment ratio was at most 0.25.
In the case of LKHW it was at most 0.25.
In the case of PNDA it was at most 0.25; in that of NLCH, at most 0.25.
In the case of TFSW it was at most 0.25; in that of DTSG, at most 0.25; in that of DLLM, at most 0.25.
FRWP: the enrichment ratio was at most 0.25.
The same measure for AQCS: 11.1; for DWVA: at most 0.25; for QMLT: at most 0.25.
Turning to FMET, the enrichment ratio is at most 0.25.
In the case of GSPG it was at most 0.25; in that of RSME, at most 0.25.
In the case of NDTM it was at most 0.25.
The same measure for MMTS: at most 0.25.
With VENG, the enrichment ratio was at most 0.25.
The same measure for CFFI: at most 0.25; for SNMT: 8.85.
In the case of FWFG, the enrichment ratio is at most 0.25.
In the case of KASP it was at most 0.25; in that of AQKP, at most 0.25; in that of SWDE, at most 0.25.
Regarding ELTE, the enrichment ratio is at most 0.25.
The same measure for QDRD: at most 0.25; for HWSL: at most 0.25; for YLYM: at most 0.25.
On to NFSQ, for which the enrichment ratio was at most 0.25.
The same measure for QLAV: at most 0.25; for AIYP: 12.7.
The same measure for KKYP: at most 0.25; for IKKN: at most 0.25; for RFMF: at most 0.25.
On to INVK, for which the enrichment ratio is at most 0.25.
As for FNVA, the enrichment ratio was at most 0.25.
The same measure for SFFH: at most 0.25; for HQSR: at most 0.25; for TSLQ: 16.4.
Regarding MKYT, the enrichment ratio is at most 0.25.
Turning to MVSH, the enrichment ratio is at most 0.25.
The same measure for HVYR: at most 0.25.
The same measure for TYIC: at most 0.25; for TGDD: at most 0.25; for AITN: 22.4.
For NCFI, the enrichment ratio was at most 0.25.
As to NIVS, the enrichment ratio is at most 0.25.
In the case of FYTA it was at most 0.25.
For WTDD, the enrichment ratio was at most 0.25.
The same measure for HISP: at most 0.25; for STFD: at most 0.25.
Take RCFM: the enrichment ratio is at most 0.25.
The same measure for DDLK: at most 0.25.
In the case of GFMQ it was at most 0.25.
On to NQQA, for which the enrichment ratio is at most 0.25.
As for NETH, the enrichment ratio was at most 0.25.
Turning to YVSW, the enrichment ratio is at most 0.25.
Take RCTF: the enrichment ratio was at most 0.25.
The same measure for YIPC: at most 0.25.
In the case of VFCS it was at most 0.25; in that of IRRV, at most 0.25; in that of GRRP, at most 0.25.
The same measure for MHWL: at most 0.25.
Consider ERNP, for which the enrichment ratio is at most 0.25.
The same measure for WKSR: at most 0.25; for LPRC: at most 0.25; for QVKR: at most 0.25.
In the case of ACMM it was 14.1; in that of QNIA, at most 0.25; in that of IWTP, at most 0.25.
In the case of GGVI it was 1.85; in that of DIHI, at most 0.25.
On to WEAD, for which the enrichment ratio was at most 0.25.
As to AYCK, the enrichment ratio was at most 0.25.
Take LLYD: the enrichment ratio is at most 0.25.
The same measure for VNEV: at most 0.25; for MINC: at most 0.25.
The same measure for HKWN: at most 0.25.
Consider PDLS, for which the enrichment ratio was at most 0.25.
In the case of HDPQ, the enrichment ratio is at most 0.25.
The same measure for GLFC: at most 0.25.
The same measure for TMGP: at most 0.25; for HLQN: at most 0.25.
The same measure for KLIS: at most 0.25.

The values are drawn from a collection of fitness landscapes (doi:10.1126/science.1257360).
